From paper PMC4742118
These are yes or no findings as the source states them, for the method shown. For part of these data: In cells and extracts the contact can be indirect. Some results given as binding are weak or reduced against the parent protein; the word gives no strength. For part of these data: Where a sequence is shown, tags or fusion partners need not be part of it.

Protein sequences, listed by entry. Tags and fused reporters are not part of them. Residues count along the entry.
UniProt Q3UVX5, residues 19-1203: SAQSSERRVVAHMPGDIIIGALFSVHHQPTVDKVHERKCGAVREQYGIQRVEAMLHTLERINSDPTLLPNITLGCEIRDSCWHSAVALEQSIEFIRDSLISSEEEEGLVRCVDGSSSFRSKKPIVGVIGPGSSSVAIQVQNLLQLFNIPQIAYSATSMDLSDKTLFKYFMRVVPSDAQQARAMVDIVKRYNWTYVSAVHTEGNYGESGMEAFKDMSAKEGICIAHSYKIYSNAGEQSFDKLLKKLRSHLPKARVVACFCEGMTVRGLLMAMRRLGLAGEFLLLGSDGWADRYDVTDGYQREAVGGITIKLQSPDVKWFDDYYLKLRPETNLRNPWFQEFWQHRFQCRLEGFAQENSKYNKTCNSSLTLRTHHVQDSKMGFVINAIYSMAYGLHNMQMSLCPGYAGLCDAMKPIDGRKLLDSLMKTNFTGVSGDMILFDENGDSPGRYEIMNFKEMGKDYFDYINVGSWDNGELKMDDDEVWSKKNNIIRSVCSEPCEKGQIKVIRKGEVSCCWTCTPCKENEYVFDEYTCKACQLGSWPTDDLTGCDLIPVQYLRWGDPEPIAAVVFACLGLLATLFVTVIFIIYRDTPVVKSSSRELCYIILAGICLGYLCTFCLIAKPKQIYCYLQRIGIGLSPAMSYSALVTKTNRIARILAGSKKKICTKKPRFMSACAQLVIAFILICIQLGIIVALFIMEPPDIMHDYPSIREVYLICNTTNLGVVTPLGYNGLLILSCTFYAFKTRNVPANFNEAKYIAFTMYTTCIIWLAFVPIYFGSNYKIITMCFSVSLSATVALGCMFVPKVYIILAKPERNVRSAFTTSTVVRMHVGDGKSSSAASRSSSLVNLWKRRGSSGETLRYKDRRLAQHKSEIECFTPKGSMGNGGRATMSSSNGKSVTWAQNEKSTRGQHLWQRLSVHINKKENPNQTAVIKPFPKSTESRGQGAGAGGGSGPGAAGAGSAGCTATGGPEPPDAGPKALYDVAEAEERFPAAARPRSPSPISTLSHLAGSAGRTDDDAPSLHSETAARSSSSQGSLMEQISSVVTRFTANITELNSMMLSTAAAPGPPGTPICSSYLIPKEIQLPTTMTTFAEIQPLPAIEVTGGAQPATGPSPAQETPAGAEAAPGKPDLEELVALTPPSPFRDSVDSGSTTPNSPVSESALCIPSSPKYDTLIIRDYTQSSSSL
UniProt Q61616: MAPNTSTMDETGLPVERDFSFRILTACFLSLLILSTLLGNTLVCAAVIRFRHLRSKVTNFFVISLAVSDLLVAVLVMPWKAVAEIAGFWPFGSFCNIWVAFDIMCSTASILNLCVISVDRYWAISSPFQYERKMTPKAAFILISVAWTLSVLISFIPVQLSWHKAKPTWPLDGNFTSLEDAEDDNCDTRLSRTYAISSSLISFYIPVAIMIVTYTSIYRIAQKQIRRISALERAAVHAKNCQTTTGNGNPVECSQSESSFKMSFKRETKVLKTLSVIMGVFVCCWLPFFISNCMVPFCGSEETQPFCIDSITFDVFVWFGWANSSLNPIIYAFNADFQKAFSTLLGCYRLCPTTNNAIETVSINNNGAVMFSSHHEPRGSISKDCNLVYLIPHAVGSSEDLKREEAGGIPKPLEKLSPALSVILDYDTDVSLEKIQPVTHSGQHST
UniProt P47746: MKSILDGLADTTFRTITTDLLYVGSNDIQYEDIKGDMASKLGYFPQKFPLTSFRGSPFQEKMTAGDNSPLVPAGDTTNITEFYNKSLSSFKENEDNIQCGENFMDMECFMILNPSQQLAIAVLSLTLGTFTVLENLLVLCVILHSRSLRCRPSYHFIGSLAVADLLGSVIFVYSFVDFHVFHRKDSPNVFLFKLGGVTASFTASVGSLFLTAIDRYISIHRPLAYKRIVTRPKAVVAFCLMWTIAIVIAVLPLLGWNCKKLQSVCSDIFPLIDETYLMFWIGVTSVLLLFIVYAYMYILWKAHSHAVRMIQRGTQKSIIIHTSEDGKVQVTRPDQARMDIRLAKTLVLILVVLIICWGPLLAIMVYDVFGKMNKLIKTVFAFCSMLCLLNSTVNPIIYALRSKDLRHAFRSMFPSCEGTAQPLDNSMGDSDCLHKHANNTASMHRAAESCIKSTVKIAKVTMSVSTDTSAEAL
UniProt P61168: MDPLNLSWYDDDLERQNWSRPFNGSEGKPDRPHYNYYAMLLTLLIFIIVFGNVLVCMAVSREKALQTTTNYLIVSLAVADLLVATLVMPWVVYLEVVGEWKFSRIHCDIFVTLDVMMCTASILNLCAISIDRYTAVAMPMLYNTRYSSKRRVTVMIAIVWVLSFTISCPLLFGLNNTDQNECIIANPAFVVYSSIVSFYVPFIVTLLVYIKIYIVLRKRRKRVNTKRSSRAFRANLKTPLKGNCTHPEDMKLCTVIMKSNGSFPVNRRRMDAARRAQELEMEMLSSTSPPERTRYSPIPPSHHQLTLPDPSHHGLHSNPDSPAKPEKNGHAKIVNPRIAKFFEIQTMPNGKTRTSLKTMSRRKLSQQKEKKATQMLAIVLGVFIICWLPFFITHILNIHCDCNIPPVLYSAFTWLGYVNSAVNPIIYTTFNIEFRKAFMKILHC
UniProt Q14BI2, residues 19-872: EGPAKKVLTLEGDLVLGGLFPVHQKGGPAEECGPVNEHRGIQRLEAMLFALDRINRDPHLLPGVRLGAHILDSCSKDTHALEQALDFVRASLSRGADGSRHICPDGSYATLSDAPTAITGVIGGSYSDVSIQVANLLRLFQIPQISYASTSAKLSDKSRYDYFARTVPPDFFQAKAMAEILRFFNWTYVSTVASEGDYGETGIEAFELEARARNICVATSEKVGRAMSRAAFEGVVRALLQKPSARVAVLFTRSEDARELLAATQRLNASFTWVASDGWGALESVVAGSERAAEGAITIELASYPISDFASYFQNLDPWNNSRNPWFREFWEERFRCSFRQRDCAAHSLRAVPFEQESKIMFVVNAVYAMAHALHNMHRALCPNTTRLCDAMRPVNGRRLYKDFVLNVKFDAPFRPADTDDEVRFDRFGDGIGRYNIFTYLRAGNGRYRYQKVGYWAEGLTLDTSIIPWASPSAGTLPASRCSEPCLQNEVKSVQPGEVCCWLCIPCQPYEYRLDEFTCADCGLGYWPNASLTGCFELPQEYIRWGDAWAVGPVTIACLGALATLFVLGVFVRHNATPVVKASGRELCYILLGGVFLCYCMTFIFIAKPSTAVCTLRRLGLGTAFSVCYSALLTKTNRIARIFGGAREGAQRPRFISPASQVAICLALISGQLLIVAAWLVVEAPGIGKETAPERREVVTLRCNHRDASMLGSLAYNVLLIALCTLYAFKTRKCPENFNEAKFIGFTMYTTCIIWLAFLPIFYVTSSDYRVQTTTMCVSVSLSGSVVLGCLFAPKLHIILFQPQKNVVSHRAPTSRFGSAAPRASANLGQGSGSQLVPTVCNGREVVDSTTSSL
UniProt P42866: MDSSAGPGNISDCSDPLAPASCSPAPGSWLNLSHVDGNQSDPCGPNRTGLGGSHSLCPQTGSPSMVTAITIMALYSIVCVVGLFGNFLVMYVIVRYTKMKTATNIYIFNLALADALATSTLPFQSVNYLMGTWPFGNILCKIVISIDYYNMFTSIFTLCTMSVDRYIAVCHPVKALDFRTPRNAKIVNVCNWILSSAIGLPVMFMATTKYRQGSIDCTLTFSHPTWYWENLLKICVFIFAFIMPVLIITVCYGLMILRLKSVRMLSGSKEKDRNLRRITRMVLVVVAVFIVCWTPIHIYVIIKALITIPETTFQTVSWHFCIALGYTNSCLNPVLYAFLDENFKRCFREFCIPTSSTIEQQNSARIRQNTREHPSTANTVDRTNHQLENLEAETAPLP
UniProt Q64264: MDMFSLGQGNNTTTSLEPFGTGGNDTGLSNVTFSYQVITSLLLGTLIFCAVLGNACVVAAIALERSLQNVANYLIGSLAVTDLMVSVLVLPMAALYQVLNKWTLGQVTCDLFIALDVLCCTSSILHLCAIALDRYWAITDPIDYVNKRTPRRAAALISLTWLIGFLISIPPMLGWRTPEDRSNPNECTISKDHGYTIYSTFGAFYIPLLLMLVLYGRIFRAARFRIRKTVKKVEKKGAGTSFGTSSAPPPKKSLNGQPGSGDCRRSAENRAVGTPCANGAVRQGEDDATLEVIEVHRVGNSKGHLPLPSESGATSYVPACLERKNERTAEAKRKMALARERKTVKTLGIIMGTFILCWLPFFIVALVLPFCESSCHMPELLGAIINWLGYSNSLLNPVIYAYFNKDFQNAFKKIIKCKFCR
UniProt Q9Z0J4: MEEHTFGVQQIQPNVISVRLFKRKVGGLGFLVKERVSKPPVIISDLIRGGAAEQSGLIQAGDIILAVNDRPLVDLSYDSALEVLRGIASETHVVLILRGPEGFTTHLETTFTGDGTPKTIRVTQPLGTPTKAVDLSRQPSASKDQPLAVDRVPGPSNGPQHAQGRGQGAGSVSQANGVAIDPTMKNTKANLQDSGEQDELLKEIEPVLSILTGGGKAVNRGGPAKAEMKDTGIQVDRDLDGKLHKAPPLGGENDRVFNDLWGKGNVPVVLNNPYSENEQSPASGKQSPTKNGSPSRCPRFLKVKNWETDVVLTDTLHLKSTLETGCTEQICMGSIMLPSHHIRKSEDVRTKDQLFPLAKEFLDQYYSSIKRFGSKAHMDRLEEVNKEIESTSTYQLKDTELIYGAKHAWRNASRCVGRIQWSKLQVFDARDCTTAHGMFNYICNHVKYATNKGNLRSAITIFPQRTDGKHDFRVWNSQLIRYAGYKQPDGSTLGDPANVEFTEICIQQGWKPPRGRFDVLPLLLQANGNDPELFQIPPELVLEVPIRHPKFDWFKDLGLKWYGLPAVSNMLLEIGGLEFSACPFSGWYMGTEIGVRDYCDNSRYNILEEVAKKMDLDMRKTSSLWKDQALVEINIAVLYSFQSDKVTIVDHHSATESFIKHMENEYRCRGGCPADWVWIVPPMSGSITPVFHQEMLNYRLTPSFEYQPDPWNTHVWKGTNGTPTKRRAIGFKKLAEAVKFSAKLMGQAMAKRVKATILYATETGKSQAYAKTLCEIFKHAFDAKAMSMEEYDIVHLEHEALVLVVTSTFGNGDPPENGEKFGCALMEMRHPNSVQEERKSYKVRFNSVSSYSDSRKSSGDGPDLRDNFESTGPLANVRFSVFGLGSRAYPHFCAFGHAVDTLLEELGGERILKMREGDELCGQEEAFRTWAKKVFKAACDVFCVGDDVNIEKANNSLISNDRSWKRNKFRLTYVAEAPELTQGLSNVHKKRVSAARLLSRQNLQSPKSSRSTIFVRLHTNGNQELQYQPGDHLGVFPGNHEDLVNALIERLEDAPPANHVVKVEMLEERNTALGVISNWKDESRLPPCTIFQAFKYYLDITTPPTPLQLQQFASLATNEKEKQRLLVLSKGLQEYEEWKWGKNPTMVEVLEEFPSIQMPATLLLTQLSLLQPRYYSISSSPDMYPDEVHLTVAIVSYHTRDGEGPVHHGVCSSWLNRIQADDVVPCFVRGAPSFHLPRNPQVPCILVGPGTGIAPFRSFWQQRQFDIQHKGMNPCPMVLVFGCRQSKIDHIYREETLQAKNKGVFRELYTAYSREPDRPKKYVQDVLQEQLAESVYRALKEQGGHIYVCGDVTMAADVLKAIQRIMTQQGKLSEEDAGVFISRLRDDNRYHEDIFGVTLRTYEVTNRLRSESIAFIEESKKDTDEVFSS
UniProt P35363: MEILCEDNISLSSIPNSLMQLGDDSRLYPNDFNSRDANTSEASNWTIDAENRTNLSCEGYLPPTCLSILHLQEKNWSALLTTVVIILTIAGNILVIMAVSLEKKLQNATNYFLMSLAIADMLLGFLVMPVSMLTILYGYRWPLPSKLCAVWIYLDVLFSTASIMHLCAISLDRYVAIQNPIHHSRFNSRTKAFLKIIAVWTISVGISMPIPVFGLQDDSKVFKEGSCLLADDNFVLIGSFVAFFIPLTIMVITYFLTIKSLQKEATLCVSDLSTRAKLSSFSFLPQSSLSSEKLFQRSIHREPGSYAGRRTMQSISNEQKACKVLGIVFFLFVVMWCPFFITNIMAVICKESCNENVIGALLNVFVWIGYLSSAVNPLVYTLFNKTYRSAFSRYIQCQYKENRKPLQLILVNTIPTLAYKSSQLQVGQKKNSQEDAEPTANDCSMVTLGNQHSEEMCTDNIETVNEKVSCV
UniProt O55242: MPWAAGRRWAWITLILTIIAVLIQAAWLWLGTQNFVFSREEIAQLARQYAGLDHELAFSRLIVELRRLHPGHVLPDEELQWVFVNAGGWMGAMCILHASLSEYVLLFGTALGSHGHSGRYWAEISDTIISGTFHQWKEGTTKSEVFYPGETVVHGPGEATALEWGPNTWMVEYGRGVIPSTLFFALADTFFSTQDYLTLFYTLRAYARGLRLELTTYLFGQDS

Legend:
GST-NR1 C0-C1-C2 (mouse) = GST-NR1 C0-C1-C2 (mouse) (UniProt P35438); assay: pull-down; bait (GST-NR1 C0-C1-C2 or GST-MOR) covalently attached to NHS-activated Sepharose; σ1R 100 nM in 50 mM Tris-HCl pH 7.4, 0.2% CHAPS, 30 min RT; 0 mM CaCl2; Western blot; both purified
[1] = molecular target: metabotropic glutamate 5 receptor, full length murine, BiFC fusion (murine) (UniProt Q3UVX5); assay: split reporter; BiFC in living CHO cells transiently co-transfected with the pair of full-length proteins in the VN173 and VC155 plasmids (0.3 ug); confocal fluorescence 24 h later
[2] = molecular target: dopamine D1 receptor, full length murine, BiFC fusion (murine) (UniProt Q61616); assay: as above
[3] = molecular target: NMDAR NR1 C0-C1-C2 subunit, full length murine, BiFC fusion (murine) (UniProt P35438); assay: as above
[4] = molecular target: cannabinoid CB1 receptor, full length murine, BiFC fusion (murine) (UniProt P47746); assay: as above
[5] = molecular target: dopamine D2 receptor, full length murine, BiFC fusion (murine) (UniProt P61168); assay: as above
[6] = molecular target: metabotropic glutamate 2 receptor, full length murine, BiFC fusion (murine) (UniProt Q14BI2); assay: as above
[7] = molecular target: T1, histidine triad nucleotide-binding protein 1 (HINT1), full length murine, BiFC fusion (murine) (UniProt P70349); assay: as above
T1 sequence: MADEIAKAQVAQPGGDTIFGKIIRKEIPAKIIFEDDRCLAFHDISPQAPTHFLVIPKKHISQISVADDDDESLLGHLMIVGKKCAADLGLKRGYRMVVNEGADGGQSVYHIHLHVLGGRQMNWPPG

[8] = molecular target: mu-opioid receptor (MOR), full length murine, BiFC fusion (murine) (UniProt P42866); assay: as above
[9] = molecular target: serotonin 1A receptor, full length murine, BiFC fusion (murine) (UniProt Q64264); assay: as above
[10] = molecular target: neural nitric oxide synthase (nNOS), full length murine, BiFC fusion (murine) (UniProt Q9Z0J4); assay: as above
[11] = molecular target: serotonin 2A receptor, full length murine, BiFC fusion (murine) (UniProt P35363); assay: as above

binding (GST-NR1 C0-C1-C2 (mouse)) | binding [1] | binding [2] | binding [3] | binding [4] | binding [5] | binding [6] | binding [7] | binding [8] | binding [9] | binding [10] | binding [11] | Substance
binds weakly | – | – | – | – | – | – | – | – | – | – | – | recombinant σ1R (from UniProt O55242 1-223) (receptor)
– | binds | binds | binds | binds | binds | binds | binds | binds | binds | no binding | binds | sigma 1 receptor (σ1R), full length murine, BiFC fusion (from UniProt O55242 1-223)
